Some of the results follow.

The subject of this experiment is T1, C. trachomatis L2/434/Bu expressing GFP (CTL2-GFP).
T1 construct: L2/434/Bu GFP intracellular growth in HeLa cells
More on the design: species or system HeLa; C. trachomatis total inclusion area by high-content imaging, normalised to DMSO. To be noted: total inclusion area; 28.5 h, 10 µM; inhibitor. In outline: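 High-content images of fixed, Hoechst-stained infected cultures supply inclusion area and count (growth) plus nuclei number (viability), complementing bulk GFP/resorufin fluorescence. MIC determination is unchanged from the primary assay.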
For `Cc1ccc(S(=O)(=O)Nc2sccc2C(=O)O)cc1[N+](=O)[O-]` [CBK042258], the “% of control remaining” value was determined as 96.3507.

Consider `CCCCCC(=O)N[C@H]1CCC[C@H]1C(=O)O` [CBK007807], for which the “% of control remaining” value came to 89.0036.

As for `CN(C)c1nc(N(C)C)nc(N(C#N)S(=O)(=O)c2ccccc2Cl)n1` [CBK269036], the “% of control remaining” value is 88.4581.

Regarding `CCC1CCCCN1S(=O)(=O)c1ccc(NC(=O)Cn2c(=O)oc3ccccc32)cc1` (stereo not drawn) [CBK268069], the “% of control remaining” value is on record as 102.564.

`CC(=O)Nc1cccc(Oc2cnc(-c3ccc(OC(F)(F)F)cc3)c(N)n2)c1` [CBK145119]: the “% of control remaining” value is given as 103.705.

With `COc1ccc(-c2[nH]c3ncccc3c2CN2CCCC2)cc1` [CBK285331], the “% of control remaining” value amounted to 48.6247.

In the case of `CC1CCc2c(sc3ncnc(NCCCN4CCCCCC4=O)c23)C1` (stereo not drawn) [CBK305947], the “% of control remaining” value is on record as 35.5288.

Take `CCCc1cc(O)nc(SCCCCn2ccnc2C)n1` [CBK306359]: the “% of control remaining” value stood at 62.5795.

On to `Cn1nc(CN(Cc2ccccc2C(F)(F)F)C2CC2)[nH]c1=O` [CBK306391], for which the “% of control remaining” value was 30.8881.

Take `CC(=O)Nc1ccccc1OCc1cc(-c2ccccc2)on1` [CBK296617]: the “% of control remaining” value is on record as 75.8078.

On to `COc1cc(/C=N/NC(=O)CCn2c3ccccc3c3ccccc32)ccc1O` [CBK262332], for which the “% of control remaining” value stood at 44.9953.

As for `O=C(NCc1cccnc1)c1csc2c1CCCC2` [CBK305029], the “% of control remaining” value is given as 120.072.

In the case of `Cc1nn(-c2ccccc2)c2[nH]c(=O)c(CNC(c3ccccc3)c3ccco3)cc12` (stereo not drawn) [CBK286449], the “% of control remaining” value came to 93.7819.

In the case of `COCc1cc(C)nc2c1C(=O)NC(c1ccccc1C(=O)O)N2Cc1ccccc1` (stereo not drawn) [CBK286599], the “% of control remaining” value is 91.3576.

Turning to `Cc1ccc(C(=O)N(C)CCN(C)C)c(NCc2cccnc2)n1` [CBK076348], the “% of control remaining” value is reported as 129.182.

Turning to `CN1C(=O)COc2ccccc2CCCC[C@@H]2[C@H]1CCCN2C(=O)CCCn1cccn1` [CBK292090], the “% of control remaining” value is 99.5411.

As for `O=C(O)C1CCN(C(=O)CSc2nc3ccccc3o2)CC1` [CBK286557], the “% of control remaining” value is on record as 91.0945.

For `O=C1N[C@]2(Cc3ccccc31)CN(Cc1ccccc1)C[C@H]2CO` [CBK284743], the “% of control remaining” value came to 95.8441.

As to `NC(Cc1ccc(Cl)cc1)C(=O)N(CCc1cc(C(F)(F)F)cc(C(F)(F)F)c1)c1cccc2ccccc12` (stereo not drawn) [CBK008674T], the “% of control remaining” value turned out to be 44.7264.

With `O=C1NC2(CCC2)C(=O)N1Cc1nn(-c2ccccc2)c2c1CCC2` [CBK306383], the “% of control remaining” value is given as 38.8239.

Consider `Cc1csc(C(Cc2ccsc2)NC(=O)C2CC2C)n1` (stereo not drawn) [CBK282226], for which the “% of control remaining” value is recorded as 82.5059.

On to `CC(NC(=O)N1CCSCC1)c1ccc2c(c1)CC(=O)N2` (stereo not drawn) [CBK305093], for which the “% of control remaining” value stood at 78.977.

Take `N#Cc1cc2c(=O)n(-c3ccccn3)ccc2[nH]c1=O` [CBK288119]: the “% of control remaining” value came to 99.2482.

Take `CC1=NN(c2ccc(Cl)c(Cl)c2)C(=O)C1` [CBK067761]: the “% of control remaining” value was determined as 94.2841.

On to `CCN1CCN(C(=O)c2c(-c3ccccc3)noc2C)CC1` [CBK200251], for which the “% of control remaining” value is 104.112.

`CCC1(CC)OC(N[C@@H](C)c2ccccc2C(F)(F)F)=NC1=O` [CBK122691]: the “% of control remaining” value was 81.8175.

With `CCCNC(=O)c1ccc(C)c(NC(=O)N[C@@H]2C[C@@H](CO)N(C)C2)c1` [CBK307451], the “% of control remaining” value is reported as 102.794.

`O=C(Nc1cccc(N2CCNCC2)c1)c1coc2c1C(=O)CCC2` [CBK034113T]: the “% of control remaining” value is listed as 83.5785.

`CCn1c(CC2CCN(C(=O)CCCn3cnnn3)CC2)nn(C)c1=O` [CBK306537]: the “% of control remaining” value came out at 69.995.

With `CCC1=NC(c2ccccc2Cl)N(O)C1(C)C` (stereo not drawn) [CBK026466], the “% of control remaining” value is given as 74.3486.

`c1csc(-c2csc3ncnc(NCCCN4CCOCC4)c23)c1` [CBK267166]: the “% of control remaining” value is listed as 105.838.

Turning to `Nc1cccc(-c2cc(N3CCCC3CO)n3nccc3n2)c1` (stereo not drawn) [CBK037049], the “% of control remaining” value is listed as 109.202.

For `O=C(NCc1csc2c1CCCC2)N1CCC(CO)CC1` [CBK307476], the “% of control remaining” value is reported as 61.0379.

With `COc1cccc(/C=C/c2nc(C#N)c(NCCCN3CCOCC3)o2)c1` [CBK269506], the “% of control remaining” value is listed as 89.2921.

Turning to `COc1ccc(C2(C(=O)N3CCC(c4ccncc4)CC3)CC2)cc1` [CBK285476], the “% of control remaining” value is listed as 70.9567.

In the case of `Cc1cc(C)n(C(C)CC(=O)NCc2ccccc2-n2ccnc2)n1` (stereo not drawn) [CBK281518], the “% of control remaining” value amounted to 122.651.

As to `Cc1cc(C)c(C(=O)N2CCN(CCNC(=O)C3CCCC3)CC2)[nH]1` [CBK305315], the “% of control remaining” value is on record as 95.4062.

`CC(=O)Nc1cccc(C(=O)N2CCOC(CCc3ccccc3)C2)c1` (stereo not drawn) [CBK304629]: the “% of control remaining” value came to 51.7367.

Take `CCC(C)(C)c1ccc(S(=O)(=O)N2CCCN(Cc3cn(C)c4ccccc34)CC2)cc1` [CBK062871]: the “% of control remaining” value is 44.8357.

As to `CN(C)CCNC(=O)c1cc(-c2ccncc2)nc2ccc(Br)cc12` [CBK267728], the “% of control remaining” value was determined as 104.197.

`COC(=O)c1oc(-c2ccc(OC)cc2)c(-c2ccc(OC)cc2)c1C(N)=O` [CBK001957]: the “% of control remaining” value stood at 95.0283.

`Cc1ccccc1-n1nnnc1C(c1ccccc1)N(C)Cc1cccc([N+](=O)[O-])c1` (stereo not drawn) [CBK262878]: the “% of control remaining” value came out at 59.3062.

Regarding `Cc1cccc(NC(=O)C(c2ccccc2)N2CCOCC2)c1` (stereo not drawn) [CBK269331], the “% of control remaining” value was 59.5783.

Consider `Cc1ccc(S(=O)(=O)NCCn2cnc([N+](=O)[O-])n2)cc1` [CBK266270], for which the “% of control remaining” value is reported as 112.852.

On to `CC(=O)c1c(-c2cccc(C(=O)N(C)C3CCN(C)C3)c2)cnn1C` (stereo not drawn) [CBK306633], for which the “% of control remaining” value is listed as 53.9855.

Take `CC(C)C(=O)N1CCC(n2nc(-c3cccs3)oc2=O)CC1` [CBK282422]: the “% of control remaining” value was 102.301.

Take `COc1cnc(-c2cccc(C(F)(F)F)c2)c(NC(=O)Cc2ccccc2)n1` [CBK145308]: the “% of control remaining” value is 82.2546.

On to `O=C(O)CNCCC(=O)c1ccc([N+](=O)[O-])cc1` [CBK020544], for which the “% of control remaining” value turned out to be 91.5228.

Turning to `O=C(O)CCCn1cc(NC(=O)Cc2ccccc2)cn1` [CBK269821], the “% of control remaining” value is recorded as 85.0189.

As for `COc1ccc(-c2nn(C)c(=O)c3ccccc23)cc1CNC(=O)c1cc([N+](=O)[O-])ccc1OC` [CBK266229], the “% of control remaining” value came to 97.868.

Consider `Cc1nn(C)c(C)c1CCC(=O)N1CCCCC1c1ncc(-c2cccc(F)c2)[nH]1` (stereo not drawn) [CBK291150], for which the “% of control remaining” value is listed as 92.055.
